Data published in the supplement of paper PMC3334620.
Whole data set: some 33,000 sequences, median “E-score (-0.5 to 0.5)” near -0.056, cut for the highest 2% near 0.38. This is one part of the list.

The sequences below were run against Stb4 (UniProt P50104) (assay: PBM E-score (8-mer binding enrichment) (E-score (-0.5 to 0.5)); higher = stronger / more preferred TF binding; most listed sequences are background and not binding sites). Conditions: protein concentration: 200 nM; construct: GST-DNA-binding domain.
Outline: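 Masliner-normalised scans of fluorescent anti-GST signal were the basis for scoring. That signal came from GST-tagged yeast transcription factors applied at about 100-200 nM to double-stranded universal all-10-mer Agilent arrays on fresh or once-stripped slides. Each ungapped eight-base word, pooled with its reverse complement, received an E-score from the Universal PBM Analysis Suite.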

Sequence | PBM E-score
ACGCCGAC | 0.272
CTGCGAGC | -0.126
ATCTGTCA | 0.037
AACCGAAT | 0.325
CTCGATTC | -0.0249
GCAAGTAA | -0.0627
TATGCACA | -0.0462
GGCGCGTA | 0.097
GATATTCC | 0.265
CGCATATA | -0.0363
CCCCCCTA | -0.178
TCCTAGGA | -0.093
ACTTTACC | 0.124
TGGGATAA | -0.182
ATGATTCC | 0.17
GAGTCGAA | 0.121
AGTCAAAA | -0.115
CTTCAGGA | 0.074
ACACTTCA | 0.022
CCAGCATA | -0.278
ATCGGTCC | 0.169
CCTGATAG | -0.17

Sequence | PBM E-score
AGAGCTCG | 0.175
GTCTCGGA | 0.442
AGGCTTGC | -0.327
AAGAGCAA | -0.153
ACATCGGT | 0.144
CGCTAAAA | -0.162
GTGCGCAC | 0.236
CCCATAGA | -0.255
ACCGCCAG | -0.0546
GAAAGTAA | 0.0859
AAGTGACG | -0.0102
GTTCTATA | -0.173
AGATCAGG | -0.0568
CTTGACCC | -0.0581
AGCGTCAC | -0.0735
CTTCATGC | -0.0601
AATGACAT | -0.0231
CATTGAAC | 0.0414
ACCTCAAG | -0.227
TAAAGTAA | -0.189
AGCACGGG | 0.121
ACGTGCCG | 0.278

Sequence | PBM E-score
CAATAGAG | -0.315
CATACCTA | 0.0497
AGAAGGTC | -0.231
GGAGCAGA | 0.0128
AGAAGTAT | -0.134
CGCGTAGA | -0.11
ACCGAAGG | 0.243
GAGGTGGA | 0.0823
GCCGAGGA | 0.4
TCGTGACA | 0.0104
CCCCCGGG | 0.214
GGGTCCAC | -0.0879
AACTCGGC | 0.364
ACTGCAGA | -0.0926
CTGCGGAC | -0.0984
CTAGTTAA | -0.122
ACCACAGC | -0.0656
CTGGAAAA | -0.00258
TACTAAGA | -0.027
CGAGTCCG | 0.251
AAGACTGG | -0.0599
CGACAGAG | -0.101

Sequence | PBM E-score
TGGAGCCA | -0.26
CCTCGTCG | 0.0651
CAGGGGTC | -0.16
AGATAGGC | -0.155
TAAACCAA | -0.137
ATTTACTC | -0.168
AGCGTAAT | -0.107
CGGCTGCC | 0.269
GATTTAGC | 0.0709
TCCAGTCA | -0.0411
AGGATGTG | -0.0659
ACGGGCCG | 0.277
CCAACGGG | 0.165
CGGTATCA | 0.164
AGAACATG | -0.0757
GACGTCCC | -0.0179
AGGTCGGA | 0.345
CATGTATC | -0.143
TGCTTAAA | -0.0827
GCCCTTCA | -0.158
ATCCACAG | -0.177
ATTATGAG | -0.0617

Sequence | PBM E-score
AAAGTTGT | 0.00681
AACGAGGC | -0.13
AGTCTTCA | -0.237
AGTAGGGG | 0.0719
GAGCAACC | 0.0935
GGCTGTGA | -0.116
CGAACGGC | 0.18
ATTGAATA | 0.0122
ATTAGACG | -0.109
CTTCGGCC | 0.218
ATAGACAT | -0.258
GCATGACA | -0.289
GGAGACCC | 0.0398
GATTGCCA | -0.038
CTGCGTTA | -0.122
AACCAAAT | 0.116
TCTGGGAA | -0.208
AGCTACCT | -0.0284
ACTCGTCG | -0.126
TATTTTCA | -0.0408
ATTGCGAG | -0.0368
AATCGACA | 0.0906
